Measurements as given in paper PMC4336329 (PLoS ONE, 2015).
Screen size: about 310,000 compounds; about 2,200 (0.71%) showed an effect of 50% or more. Effects have a minus sign here. Some of the results follow. Where a SMILES comes first, the peptide text is derived from it. The star is where a group is joined. Boc = CC(C)(C)OC(=O)*

biological target: human ether-à-go-go-related gene (hERG) potassium channel (human, UniProt Q12809); assay: primary screen, population patch clamp on CHO cells stably expressing hERG
Sequence (Q12809 whole entry, looked up): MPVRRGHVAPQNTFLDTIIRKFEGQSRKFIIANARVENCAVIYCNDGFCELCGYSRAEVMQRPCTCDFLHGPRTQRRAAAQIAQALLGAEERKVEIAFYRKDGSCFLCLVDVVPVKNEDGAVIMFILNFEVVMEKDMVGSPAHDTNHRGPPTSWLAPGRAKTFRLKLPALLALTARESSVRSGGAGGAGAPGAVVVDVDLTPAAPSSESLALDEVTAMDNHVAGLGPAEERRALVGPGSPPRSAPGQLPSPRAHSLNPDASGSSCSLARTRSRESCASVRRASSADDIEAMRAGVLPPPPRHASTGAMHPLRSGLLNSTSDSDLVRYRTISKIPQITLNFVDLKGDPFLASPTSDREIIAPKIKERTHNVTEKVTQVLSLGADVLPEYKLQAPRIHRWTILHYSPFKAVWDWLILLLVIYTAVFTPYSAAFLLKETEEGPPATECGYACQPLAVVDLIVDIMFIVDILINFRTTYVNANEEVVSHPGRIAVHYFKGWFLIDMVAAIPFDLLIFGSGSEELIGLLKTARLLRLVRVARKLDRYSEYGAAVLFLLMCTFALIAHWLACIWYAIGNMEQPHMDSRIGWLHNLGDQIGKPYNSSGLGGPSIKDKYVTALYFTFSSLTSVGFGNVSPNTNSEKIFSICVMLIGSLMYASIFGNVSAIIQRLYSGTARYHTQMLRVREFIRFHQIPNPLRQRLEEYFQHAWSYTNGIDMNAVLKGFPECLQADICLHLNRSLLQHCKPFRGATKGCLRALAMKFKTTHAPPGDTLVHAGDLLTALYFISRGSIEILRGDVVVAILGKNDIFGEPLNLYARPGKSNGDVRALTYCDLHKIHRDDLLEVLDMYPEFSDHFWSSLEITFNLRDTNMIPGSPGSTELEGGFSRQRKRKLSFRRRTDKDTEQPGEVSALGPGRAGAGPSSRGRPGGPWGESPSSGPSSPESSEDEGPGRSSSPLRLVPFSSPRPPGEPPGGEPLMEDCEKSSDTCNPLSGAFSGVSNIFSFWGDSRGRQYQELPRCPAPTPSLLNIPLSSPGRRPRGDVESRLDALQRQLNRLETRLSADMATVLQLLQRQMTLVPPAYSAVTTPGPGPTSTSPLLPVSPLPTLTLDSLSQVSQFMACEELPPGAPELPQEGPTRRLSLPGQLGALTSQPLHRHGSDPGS

SMILES	hERG current change (%, negative = inhibition) at 1uM
O=C(O)CCCN1C(=O)NC2NC(=O)NC21 (stereo not shown)	10.2%
CCC(=O)N1CCc2cc(S(=O)(=O)N3CCN(c4cc(C)ccc4C)CC3)ccc21	16.2%
O=C(CCCC(=O)OCC(=O)NC1CCCC1)Nc1ccccn1	0.502%
COc1ccc([N+](=O)[O-])c(OC)c1C(=O)NC(=O)Nc1nc(C)nc(C)n1	-0.625%
CCOC(=O)C(Cc1ccc(O)cc1)NC(=O)CNC(=O)C1CCCN1C(=O)OC(C)(C)C (stereo not drawn) (Boc-Pro-Gly-Tyr-OEt; configuration not given here)	13.5%
Cc1ccc(NC(=O)CS(=O)CC(=O)NC2CCN(Cc3ccccc3)CC2)c(C)c1 (stereo not shown)	6.57%
Cc1ccc(-n2c(SCC(=O)NCC3CCCO3)nc3c(c2=O)SCC3)cc1 (stereo not shown)	2.53%
Cc1ccc(NCc2nnc(SCC(=O)Nc3ccccc3)n2CC2CCCO2)c(C)c1 (stereo not shown)	10.6%
CCOCCCNC(=O)c1[nH]c(C)c(C(C)=O)c1C	14.4%
C/C(=N\NC(=O)C(N)=O)c1ccc(NC(=O)c2cccs2)cc1	18.4%
C=CCSc1nc2sc3c(c2c(=O)[nH]1)CC(C)(CC)OC3 (stereo not shown)	15.4%
COC(=O)[C@@H]1C[C@H]2CC[C@H](O)C[C@H]2N1Cc1ccc(C(F)(F)F)cc1	6.03%
O=C(Cc1ccccc1)N1CCc2[nH]nc(-c3ccccc3)c2C1	12.6%
Cc1ccc(NC(=O)COC(=O)Cc2csc(-c3ccc(Cl)cc3)n2)cc1C	3.33%
CCOC(=O)c1nnn(-c2nn3nnnc3c3ccccc23)c1C	8.18%
O=C(COC(=O)CCC(=O)c1ccc(F)cc1)Nc1ccc2[nH]c(=O)[nH]c2c1	1.6%
COc1cccc(/C=N/n2nnnc2N)c1OCc1ccccc1Cl	6.8%
CS(=O)(=O)N1CCN(C/C=C/c2ccccc2)CC1	13.3%
CCOc1cc(/C=N/NC(=O)c2cccnc2)ccc1OC(=O)c1ccco1	11.1%
O=C(Nc1ccc([N+](=O)[O-])cc1)c1ccc(S(=O)(=O)N2CCCC2)cc1	15.2%
O=C(CCn1c(=O)c2ccccc2n(Cc2ccccc2)c1=O)NCc1ccc2c(c1)OCO2	1.61%
O=c1c2ccccc2n2c(-c3ccc(C(F)(F)F)cc3)nnc2n1Cc1ccccc1	6.98%
CC(=O)Nc1nnc(SCC(=O)Nc2ccc3c(c2)OCCO3)s1	4%
CCOC(=O)n1c(=O)n(Cc2cccc(C)c2)c2ccccc21	10.6%
CCn1cc(C(=O)Nc2ccc3c(c2)OCCO3)c2cc(OC)c(OC)cc2c1=O	7.8%
O=S(=O)(Nc1ccc2c(c1)nc1n2CCN(Cc2ccccc2)C1)c1ccc(F)cc1	-18.3%
Cc1ccc(Nc2nnc(SCC3CCCCO3)s2)cc1 (stereo not shown)	6.78%
Cc1ccc(S(=O)(=O)N(C)C)cc1NC(=O)C1CCCCN1S(=O)(=O)c1ccccc1 (stereo not shown)	0.568%

SMILES	hERG current change (%, negative = inhibition) at 1uM
C=CCN1C(=O)SC(Cc2cccc(OC)c2O)C1=O (stereo not shown)	2.31%
COc1cc(NC(=O)Cc2cccs2)c(C(=O)O)cc1OC	21.2%
Cc1ccc2c(c1)c1c(n2C)-c2[nH]ncc2CC1	2.76%
CCn1nnnc1SCC(=O)Nc1cc(C)on1	7.26%
O=[N+]([O-])c1cc(S(=O)(=O)N2CCCCC2)ccc1NCCCN1CCOCC1	-10.3%
COc1ccc(/C(O)=C2/C(=O)C(=O)N(CCN(C)C)C2c2ccc(C)cc2)cc1Cl (stereo not shown)	-1.16%
CC(C)N1CCc2c(sc(NC(=O)c3ccco3)c2C(N)=O)C1.Cl	8.01%
CCOCCCn1c(=N)c(S(=O)(=O)c2ccccc2)cc2c(=O)n3cc(C)ccc3nc21	11.3%
CC(=O)c1ccc(OC(=O)COc2ccccc2Cl)cc1	19.8%
Cc1ccccc1CN1CCCC(C(=O)Nc2ccc(-c3ccn[nH]3)cc2)C1 (stereo not shown)	18.9%
Cc1nc(N2CCN(c3ccccn3)CC2)c2c(C)c(C(=O)Nc3ccccc3F)sc2n1	-4.74%
C#CCOCCOCCOCCNc1nc(N2CCN(C(=O)[C@H]([C@@H](C)CC)n3cc(CCCC[NH3+])nn3)CC2)nc(N2CCN(C(=O)[C@H](CCCC[NH3+])n3cc(CC(C)O)nn3)CC2)n1.[Cl-] (stereo partly shown)	6.46%
CCc1cccc(OCCN2CCCC2)c1	-2.86%
C=CCNC(=O)Nc1ccc(Cl)cn1	-12.6%
CCN1CCCc2cc(CN(CCN3CCOCC3)C(=S)Nc3cc(F)cc(F)c3)ccc21	7.28%
COc1ccc(C(C)=O)cc1COC(=O)c1cc2ccccc2cc1O	12.1%
C=CCn1c(COc2cccc3ccc(C)nc23)nnc1SCC(N)=O	8.35%
CC(=O)Nc1ccc(S(=O)(=O)N2CCCC3CCCCC32)cc1 (stereo not shown)	9.36%
CC(Cl)C(=O)Nc1cc(C(C)(C)C)nn1-c1ccccc1 (stereo not shown)	12.8%
Cc1ccc(C(=O)N2CCN(c3ccc([N+](=O)[O-])cc3-n3cccc3)CC2)cc1	-16.4%
O=C1OCCC1Sc1nc(-c2ccccc2)cs1 (stereo not shown)	6.3%
Cl.Cn1cccc1CNCc1ccccc1Cl	6.89%
CCCCNc1c(-c2cccc(-c3cc(C(C)=O)cs3)c2)nc2ccc(C)cn12.O=C(O)C(F)(F)F	10.2%
CN(C)CC1CCCCC1=O.Cl (stereo not shown)	12%
Cc1ccc(C(=O)Nc2ccc3ncccc3c2)cc1	10.7%
O=C1c2ccccc2NC(c2cccc(F)c2)N1Cc1ccccc1 (stereo not shown)	0.865%
COc1ccccc1N1CC(C(=O)Nc2ccc3c(c2)OCO3)CC1=O (stereo not shown)	7.12%
